In all, about 420,000 compounds went through this assay and about 50,000 (12%) were called active. Inconclusive results, whose numbers are uncertain, are shown with a selection of clear calls. The call rests on the fitted dose curve; in most records, active means well fitted inhibition curve with a large enough effect; inconclusive means small, poorly fitted or top-dose-only effect; inactive means flat fitted curve, though single readings scatter. No potency is given beside an inconclusive call; the fits are too rough.
Assay: qHTS for Inhibitors of human tyrosyl-DNA phosphodiesterase 1 (TDP1): qHTS in cells in presence of CPT; further: nearly all actives have a fitted effect of over 55% in size
Conditions: chicken DT40 Tdp1-/-;hTDP1 cells + 20 nM CPT, ATP luminescence, 48 h; activity change, negative = growth inhibition: at 46.2 µM (top of the series) unless noted
How it was run: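 Chicken DT40 Tdp1-/- cells complemented with human TDP1, 400 cells/well, exposed to compounds plus 20 nM camptothecin for at least 48 h at 37 C; viability read as ATP content by CellTiter-Glo luminescence.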
On the % scale 0 is the no-effect control and ±100 the full control effect; potency means the concentration at half of the fitted maximal effect; tags describe the fitted curve by direction and shape.

Structure (SMILES)	Potency	activity change, negative = growth inhibition
COc1cccc(N2CCN(C(=O)c3cn(Cc4ccccc4)nc3-c3cccnc3)CC2)c1	active: 2.59 µM	–
Cc1ccc(Oc2ccc(S(=O)(=O)N3CCOCC3)cc2C(N)=O)cc1C	inconclusive [inhibitor, single point]	–
Cc1c(CCC(=O)O)c(=O)oc2cc(OCc3ccccc3F)ccc12	–	inactive: 12.1%
CCOC1=C2CN(S(=O)(=O)c3ccc(C)cc3)[C@H](c3ccccc3)C[C@H]2n2c(=O)n(-c3ccccc3)c(=O)n2C1	–	inactive: -0.115%
CCNc1cc(N2CCN(C3CCCCC3)CC2)c2noc3c2c1C(=O)c1ccccc1-3	inconclusive [inhibitor, single point]	–
O=C(CSc1c2c(nc3cc(Cl)ccc13)CCCC2)NCCN1CCOCC1	inconclusive [inhibitor, single point]	–
CCC(C)c1ccc(NC(=S)NCc2ccccc2OC)cc1 (stereo not given)	inconclusive [inhibitor, single point]	–
Cc1cc(NC(=S)Nc2ccc(C)c(Cl)c2)n[nH]1	inconclusive [inhibitor, single point]	–
CC(O)[C@H]1CNC(=O)C(=O)N1CCCCC1CCCCC1 (stereo not given in full)	–	inactive: -4.21%
COc1cc(=O)n2c(c1C(=O)NC(C)c1ccco1)CCN(C(=O)c1ccc3c(c1)OCCO3)CC2 (stereo not given)	–	inactive: -5.08%
CC(C)C[C@@H](NC(=O)[C@@H](O)[C@H](N)Cc1ccccc1)C(=O)O	inconclusive [inhibitor, partial curve]	–
O=C(Cn1cc(S(=O)(=O)c2ccccc2)c(=O)c2cc3c(cc21)OCO3)Nc1ccc(Cl)cc1	inconclusive [inhibitor, single point]	–
Cc1ccc(S(=O)(=O)N2CCN(Cc3nc4ccc(C)cc4o3)CC2)cc1	–	inactive: -26.1%
C[C@H](CO)N1C[C@H](C)[C@@H](CN(C)Cc2cccc(C(=O)O)c2)Oc2cc(Br)ccc2S1(=O)=O	–	inactive: -3.85%
CCOc1ccc(NC(=O)COC(=O)C23CC4CC(CC(C4)C2)C3)c([N+](=O)[O-])c1	active: 18.4 µM	–
COc1ccc(CCNC(=O)c2cc(COc3c(C)cccc3C)on2)c(OC)c1	active: 23.1 µM	–
COc1ccc([C@H]2CC(=O)C=C(c3ccc(C)c([N+](=O)[O-])c3)C2)cc1	inconclusive [inhibitor, single point]	–
O=C(COc1ncnc2ccc(Br)cc12)NC1CCCC1	–	inactive: -14.6%
CSc1ccc(CCNC(=O)c2ccc(-c3nc(COc4ccc(C)cc4)c(C)o3)cc2)cc1	–	inactive: -3.39%
CCOC(CCNC(=O)c1cn(CCOC)c(=O)c2c1c1ccccc1n2C)OCC	–	inactive: 4.38%

— PubChem BioAssay AID686979 (National Center for Advancing Translational Sciences (NCATS), 2013)
